In PubChem BioAssay AID1346428 (National Center for Advancing Translational Sciences (NCATS), 2018):
The whole screen tested about 48,000 compounds, of which about 1,200 (2.5%) were called active. The shares of active, inactive and inconclusive entries below differ from those in the screen.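 The calls were made as follows: active = activation of at least 60% and not above a set upper limit (about 1 call in 100 departs from these limits); inconclusive = activation of 40% to 60%, or above that upper limit; inactive = activation under 40%.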

target: Probable G-protein coupled receptor 32 (Homo sapiens) (UniProt O75388); assay: qHTS for Agonists of Human Resolvin D1 Receptor DRV1; details: CHO-K1 GPR32 beta-arrestin PathHunter luminescence, 90 min; at 76.9 µM; active compounds read high; zero percent set by DMSO-only wells; also: 0% is about no effect
Procedure, shortened: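 Using DMSO wells as EC0, agonist-induced signal was taken as chemiluminescence from beta-Gal reconstituted upon beta-arrestin recruitment to GPR32 in CHO-K1 cells after 90 min compound treatment.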

Chain of UniProt O75388 (O75388 whole entry, looked up): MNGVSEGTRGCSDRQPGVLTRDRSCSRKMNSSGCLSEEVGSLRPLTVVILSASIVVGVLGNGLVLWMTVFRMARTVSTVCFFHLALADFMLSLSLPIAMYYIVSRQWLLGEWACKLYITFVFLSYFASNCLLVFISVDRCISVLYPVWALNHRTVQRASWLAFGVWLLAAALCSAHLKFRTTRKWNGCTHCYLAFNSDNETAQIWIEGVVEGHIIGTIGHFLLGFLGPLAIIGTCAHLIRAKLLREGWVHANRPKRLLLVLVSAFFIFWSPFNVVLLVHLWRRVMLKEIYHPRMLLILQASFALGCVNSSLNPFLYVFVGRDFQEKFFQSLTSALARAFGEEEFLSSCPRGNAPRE

SMILES | activation
CCOC(=O)c1c(NC(=O)/C=C/c2ccc(OCC)cc2)sc2c1CCCC2 | inconclusive: 52.3%
CCCCNc1nc2c(c(=O)n(Cc3ccc(Cl)c(Cl)c3)c(=O)n2C)n1C | inconclusive: 58.2%
COc1ccc(NC(=O)c2oc3ccc(S(=O)(=O)N(C)C4CCCCC4)cc3c2C)cc1 | inactive: -16%
CC(C)CCOc1ccc(Oc2nc(N(C)C)nc(N(C)C)n2)nn1 | inactive: -8.65%
COc1ccc(NC(=O)CN(C)S(=O)(=O)c2ccc3c(c2)CCCN3C(C)=O)cc1Cl | inconclusive: 56.7%
CCCN(C(=O)Cc1c(C(=O)O)[nH]c2ccc(Cl)cc12)c1ccc(OCC)cc1 | inconclusive: 134%
Cc1ccc(C)c(NC(=O)Cn2c(=O)oc3cc(S(=O)(=O)NCc4ccccc4)ccc32)c1 | active: 71.9%
CC(=O)Nc1ccc2nc(SCc3ccccc3)sc2c1 | inconclusive: 138%
CC(=O)c1ccc(N2CCN(C(=O)Cn3ncc4c3-c3ccccc3OC4)CC2)cc1 | inconclusive: 56.4%
CCOC(=O)c1nc(Nc2ccc(C(=O)OC)cc2)c2ccccc2n1 | inconclusive: 57.3%
CCOc1ccc(NC(=O)Cn2nnc(C(=O)NCCc3ccccc3)c2N)cc1 | active: 87.7%
CC(=O)Nc1c(I)cc(I)c(C(=O)O)c1I | inconclusive: 57.5%
O=C(CCCl)NCCc1ccccc1 | inactive: -12.2%
Cc1cc(C(=O)C(=O)Nc2nnc(C(C)C)s2)c(C)n1-c1ccccc1 | inactive: 30.4%
O=C(CCC1CCN(Cc2ccccc2)CC1)c1ccc2c(c1)NCCCC2 | active: 81.2%
CCOC(=O)c1c(C)[nH]c(C)c1S(=O)(=O)N1CCCC(C(=O)Nc2cccc(C)n2)C1 (stereo unspecified) | inconclusive: 151%
CCOC(=O)c1cccc(NC(=O)CSc2nc3cc4ccccc4cc3[nH]2)c1 | active: 114%
CCOc1ccc(NCc2cccn2-c2nnc(N3CCC(C(=O)NCc4cccc(OC)c4)CC3)s2)cc1 | inactive: -33%
Cc1ccc(Cc2nc3ccccc3nc2SCC(=O)NCCc2ccccc2)cc1 | inactive: -1.13%
COc1cc(-c2noc(C3CC(=O)N(c4cc(C)ccc4C)C3)n2)cc(OC)c1OC (stereo unspecified) | active: 75.8%
Cc1ccc(CNC(=O)c2sc3nc(-c4ccc(F)cc4)ccc3c2N)cc1 | active: 95.6%
COc1ccc(-n2nnc(-c3nc(-c4ccccc4C)no3)c2N)cc1Cl | inactive: -1.38%

SMILES | activation
O=C(Nc1nnc(S(=O)(=O)N2CCCC2)s1)c1ccccc1F | inconclusive: 54.4%
COc1ccc(NC(=O)Nc2cccc(-c3cn4cccnc4n3)c2)cc1 | active: 76.7%
COc1ccc(C(=O)NNc2ncnc3c2cnn3-c2ccccc2)cc1 | inconclusive: 55.7%
CN(C)c1cccc(C(=O)N2CCC(c3ccncc3)CC2)c1 | inactive: 16.7%
CC(C)CN(CC(C)C)S(=O)(=O)c1ccc(C(=O)Nc2sc3c(c2C(N)=O)CCN(C(C)C)C3)cc1 | inconclusive: 58.9%
CC(=O)c1ccc(NC(=O)Cn2c(=O)oc3cc(S(=O)(=O)N4CCCCC4)ccc32)cc1 | inconclusive: 57.8%
Cc1ccc(-n2ncc3c(N4CCCCC4)ncnc32)cc1 | inconclusive: 249%
Cc1ccccc1NC(=O)CSc1nc2ccc(NC(=O)c3ccco3)cc2s1 | inconclusive: 51.4%
Cc1cccc(C(=O)Nc2sc3c(c2C(=O)Nc2ccccc2)CCC3)c1 | inactive: -10.7%
CCCCC1C(=O)N(c2ccccc2)N(c2ccc(O)cc2)C1=O (stereo unspecified) | active: 109%
COc1cccc(N=C2SC(C(=O)Nc3cccc(Cl)c3)CC(=O)N2C)c1 (stereo unspecified) | active: 68.2%
CC1CN(c2cc3c(cc2F)c(=O)c(C(=O)O)cn3-c2ccc(F)cc2F)CCN1 (stereo unspecified) | inactive: -2.87%
O=S(=O)(c1ccc(Cl)cc1)c1nnn2c1nc(NCc1ccccc1)c1sccc12 | inactive: -9.05%
Cc1ccc(-n2c(=O)[nH]c3sc4c(c3c2=O)CCCC4)cc1 | inconclusive: 144%
COc1cc(OC)c(NC(=O)CN(C)S(=O)(=O)c2ccc3c(c2)CCCC(=O)N3)cc1Cl | inconclusive: 55.6%
COCC(C)Nc1ncnc2c1cnn2-c1cccc(Cl)c1 (stereo unspecified) | inconclusive: 128%
COc1ccccc1NC(=O)COC(=O)CC(C)(C)CC1=NS(=O)(=O)c2ccccc2N1 | inconclusive: 130%
Cc1ccc(CNC(=O)c2cccc(NC(=O)N3CCSc4ncccc43)c2)cc1 | active: 92.2%
COc1ccc(-n2c(SCC(=O)NC3CCCCC3)nc3c([nH]c4ccccc43)c2=O)cc1 | inconclusive: 57.3%
COc1cccc(C(=O)N2CCC(C(=O)Nc3cccc(Cl)c3)CC2)c1 | inconclusive: 214%
CCC(=O)Nc1ccc2nc(SCCOc3ccc(C)cc3OC)sc2c1 | active: 93%
CCCCN(C)CCCNC(=O)C1CCN(S(=O)(=O)CC)CC1 | inactive: -5.84%

SMILES | activation
COc1ccc(CCNC(=O)c2cc3n(n2)CCCN(Cc2ccc(C)cc2)C3=O)cc1OC | inconclusive: 131%
Fc1ccc(-n2ncc3c(Nc4cccc(Cl)c4)ncnc32)cc1 | inconclusive: 56.2%
O=C(NCCC1=CCCCC1)C1CCN(C(=O)N2CCOc3ccc(Cl)cc32)CC1 | inactive: -13.7%
COc1cc(C(=O)NCCc2csc(-c3ccc(Cl)cc3)n2)cc(OC)c1OC | inconclusive: 121%
Fc1ccc(-n2ncc3c(Nc4ccc5c(c4)OCCO5)ncnc32)cc1 | active: 91.8%
Cc1cc(=O)n(Cc2ccccc2)c2c1c(C)nn2C | inconclusive: 53.5%
CCOC(=O)C1=C(CS(=O)(=O)c2ccc(OC)c(Cl)c2)NC(=O)NC1c1cccc(OC)c1 (stereo unspecified) | inconclusive: 391%
Cc1cc(Cl)ccc1OCC(=O)N1CCC(c2nc3ccccc3s2)CC1 | inconclusive: 52.7%
Cc1cccc(C(=O)Nc2cc3nn(-c4ccc(C(C)C)cc4)nc3cc2C)c1 | active: 102%
Cc1ccc(CNC(=O)Cn2nc(N3CCN(c4ccccc4)CC3)ccc2=O)cc1 | inactive: 32.1%
CCCCC(CC)CNC(=O)CCCCn1c(=O)[nH]c2ccsc2c1=O (stereo unspecified) | inconclusive: 56.6%
C=CCc1ccccc1OCc1nc2ccc(C)cc2[nH]1 | inactive: 45.5%
COc1cccc(NC(=O)Nc2ccc3snnc3c2)c1 | inconclusive: 180%
CCn1cc(S(=O)(=O)c2ccc(OC)cc2)c(=O)c2cc(F)c(N3CCCCCC3)cc21 | inactive: 6.06%
CCOc1ccc(CNS(=O)(=O)c2ccc3c(c2)CC(C)N3C(C)=O)cc1OC (stereo unspecified) | inconclusive: 51.8%
COc1ccc(S(=O)(=O)N2CCC(n3c(C)nc4cccnc43)CC2)cc1Cl | active: 70.1%
CCOC(=O)C1CCCN(C(=O)Cn2ncc3c(C)n(Cc4ccc(Cl)cc4)c(C)c3c2=O)C1 (stereo unspecified) | inactive: 1.28%
Cc1[nH]c2ccccc2c1C1(O)C(=O)N(Cc2ccccc2)c2ccc(Cl)cc21 (stereo unspecified) | inconclusive: 151%
CSc1cccc(Nc2cc(C(=O)NCCCN(Cc3ccccc3)C(C)C)c3ccccc3n2)c1 | inconclusive: 54.1%
CCCCc1oc2ccc(NS(C)(=O)=O)cc2c1C(=O)c1ccc(OCCCN(CCCC)CCCC)cc1 | inactive: 42.2%
CCn1c(=O)cc(OCC(=O)Nc2cc(OC)c(OC)c(OC)c2)c2ccccc21 | active: 89.5%
Oc1c(Cl)cc(Cl)c2cccnc12 | inconclusive: 268%

SMILES | activation
CC(=O)Nc1ccc(NC(=O)c2csnn2)cc1 | inconclusive: 51.3%
C#CC(C)(CC)NC(=O)Cn1nnc(-c2ccc(OCc3ccccc3F)cc2)n1 (stereo unspecified) | active: 91%
Cc1ccc(NC(=O)c2ncn(-c3ccccc3)n2)cc1Cl | inconclusive: 58.1%
CC(C)(C)c1ccc(O)c(O)c1 | inconclusive: 180%
Cc1ccc(CSc2nc3ccc(NC(=O)C(C)C)cc3s2)cc1 | inconclusive: 57.8%
COc1ccc(C(CC(=O)Nc2ccc(C)c(C)c2)N2Cc3ccccc3C2=O)cc1OC (stereo unspecified) | inactive: -8.6%
Cc1oc(-c2cccc(Cl)c2)nc1CN1CCCC(C(=O)NCc2ccc(F)cc2)C1 (stereo unspecified) | active: 70.5%
COC(=O)c1cc(NC(=O)Cn2nc(C)n3cccc3c2=O)cc(C(=O)OC)c1 | inactive: -11.8%
CCOC(=O)C1=C(CS(=O)(=O)c2ccc(Br)cc2)NC(=O)NC1c1ccccc1 (stereo unspecified) | inconclusive: 163%
Cc1ccc(C(=O)Nc2ccc(S(=O)(=O)N(Cc3ccccc3)c3ccccc3)cc2)cc1 | inactive: -11.5%
Cc1ccc(S(=O)(=O)N(CC(O)Cn2c3ccccc3c3ccccc32)c2cccc(C(=O)NCCO)c2)cc1 (stereo unspecified) | inconclusive: 161%
O=C(NCCCN1CCN(c2cccc(Cl)c2)CC1)c1cnn(-c2ccc(F)cc2)c1-n1cccc1 | inconclusive: 54.4%
CCc1cccc(NC(=O)CN(C)S(=O)(=O)c2ccc3[nH]c4c(c3c2)CCCC4)c1 | inconclusive: 53.1%
Cc1cc(C)c(NC(=O)CCN2CCCCC2)c(C)c1 | inactive: -0.787%
c1ccc(N2CCN(c3ncnc4c3nc3n4CCCC3)CC2)cc1 | inconclusive: 56.4%
Cc1cc2c(cc1NS(=O)(=O)c1ccc(NC(=O)CC(C)C)cc1)n(C)c(=O)c(=O)n2C | inconclusive: 167%
O=C(Nc1ccc(C(F)(F)F)cc1)c1cc(S(=O)(=O)N2CCCc3ccccc32)ccc1F | inactive: -12.5%
CCOc1cccc(C(=O)Nc2ccc3oc(-c4ccncc4)nc3c2)c1 | inconclusive: 251%
COc1ccc2c(CNC3CCCCCC3)c(C(=O)O)n(Cc3ccc(C)cc3)c2c1 | inconclusive: 52%
COc1ccccc1C(=O)Oc1c(Sc2ccccc2)c(C)nn1-c1ccccc1 | inconclusive: 59%
